The RNAGym collection of RNA variant scans (doi:10.7554/elife.90254)
The source gives no read counts; variants with many changes may rest on few reads.

B1: LINE1-full (parent)
chain: UACGUAGGUGGUUUUCCCCUGAUAGUGCUAAGGGGGCCUGGAAGUUUGGACUGGGCAGAGCUCAACACAGCGUGGCAAAGUGGCUGUGGCUAGACUGCCUCUCUGGAUUCCUCGUCACUCAGCAGGGCAUCUCUGAGAGAAAUGCC

Variants of: B1
Test: self-cleavage, relative activity (ratio to wild type); higher = more cleavage; in vitro, sequencing; the parent is a self-cleaving ribozyme
With UACGUAGGUGGUUUUCCCCUGAUAGUGCUAAGGGGGCCUGGGAGUUUGGACAGGGCAGAGCCCAACACAGCGUGGCAAAGUGGCUGUGGCUAGACUGCCUCUCUGGAUUCCUCGUCACUCAGCAGGGCAUCUCUGAGAGAAAUGCC [A42G U52A U62C] the self-cleavage was 0.06.
With UACGUAGGUGGUUUUCCCCUGAUAGUGCUAAGGGGGCCUGGGAGUUUGGACAGGGCAGAGCUCAACACAGCGUGGCAAAGUGGCUGUGGCUAGACCGCCUCUCUGGAUUCCUCGUCACUCAGCAGGGCAUCUCUGAGAGAAAUGCC [A42G U52A U96C] the self-cleavage was 0.09.
For UACGUAGGUGGUUUUCCCCUGAUAGUGCUAAGGGGGCCUGGGAGUUUGGACAGGGCAGAGCUCAACACAGCGUGGCAAAGUGGCUGUGGCUAGACUGCCUCUCUGGAUUCCUCGUCACUCAGCAGGGCACCUCUGAGAGAAAUGCC [A42G U52A U130C], the self-cleavage was 1.11.
UACGUAGGUGGUUUUCCCCUGAUAGUGCUAAGGGGGCCUGGGAGUUUGGACCGGGCAGAGCUCAACACAGCGUGGCAAAGUGGCUGUGGCUAGACUGCCUCUCUGGAUUCCUCGUCACUCAACAGGGCAUCUCUGAGAGAAAUGCC [A42G U52C G122A] showed a self-cleavage of 1.73.
Work on UACGUAGGUGGUUUUCCCCUGAUAGUGCUAAGGGGGCCUGGGAGUUUGGACCGGGCAGAGCUCAACACAGCGUGGCAAAGUGGCUGUGGCUAGACUGCCUCUCUGGAUUCCUCGUCACUCAGCAGGGCAUCUCUAAGAGAAAUGCC [A42G U52C G135A] yielded a self-cleavage of 1.16.
With UACGUAGGUGGUUUUCCCCUGAUAGUGCUAAGGGGGCCUGGGAGUUUGGACGGGGCAGAGCUCAACACAGCGUGGCAAAGUGGCUGUGGCUAGACUGCCUCUCUGGAUUCCUCGUCACUCAGCAGGGCAUCUCCGAGAGAAAUGCC [A42G U52G U134C] the self-cleavage was 1.72.
With UACGUAGGUGGUUUUCCCCUGAUAGUGCUAAGGGGGCCUGGGAGUUUGGACUGGGCAGAGCACAACACUGCGAGGCAAAGUGGCUGUGGCUAGACUGCCUCUCUGGAUUCCUCGUCACUCAGCAGGGCAUCUCUGAGAGAAAUGCC [A42G U62A A69U U73A] the self-cleavage was 0.02.
UACGUAGGUGGUUUUCCCCUGAUAGUGCUAAGGGGGCCUGGGAGUUUGGACUGGGCAGAGCACAACACAGCGUGGCAAAGUGGCUGUGGCUAGACUGCCUCUCCGGAUUCCUCGUCACUCAGCAGGGUAUCUCUGGGAGAGAUGCC [A42G U62A U104C C128U A136G A141G] gave a self-cleavage of 0.04.
For UACGUAGGUGGUUUUCCCCUGAUAGUGCUAAGGGGGCCUGGGAGUUUGGACUGGGCAGAGCCCAACACAGCGUGGCAAAGUGGCUGUGGCUAGACUGCCUCUCUGGAUUCCUCGUCACUCAGCAGGGCGUCUCUGAGAGUAAUGCC [A42G U62C A129G A140U], the self-cleavage was 0.24.
Variant UACGUAGGUGGUUUUCCCCUGAUAGUGCUAAGGGGGCCUGGGAGUUUGGACUGGGCAGAGCCCAACACAGCGUGGCAAAGUGGCUGUGGCUAGACUGCCUCUCUGGAUUCCUCGUCACUAAGCAGGGCAUCUCUGAGAGAAAUGCC [A42G U62C C120A] has a self-cleavage of 0.03.
Variant UACGUAGGUGGUUUUCCCCUGAUAGUGCUAAGGGGGCCUGGGAGUUUGGACUGGGCAGAGCCCAACACAGCGUGGCAAAGUGGCUGUGGCUAGACUGCCUCUCUGGAUUCCUCGCCACUCAUCAGGGCAUCUCUGAGAGAAAUGCC [A42G U62C U115C G122U] has a self-cleavage of 0.03.
For UACGUAGGUGGUUUUCCCCUGAUAGUGCUAAGGGGGCCUGGGAGUUUGGACUGGGCAGAGCUCAACACAGCGCGGCAAAGUGGCUGUGGCUAGACUGCCUCUCUGGAUUCCUCGUCACUCAGCAGGGCAUCUCGGAGAGAAAUGCC [A42G U73C U134G], the self-cleavage was 0.
Work on UACGUAGGUGGUUUUCCCCUGAUAGUGCUAAGGGGGCCUGGGAGUUUGGACUGGGCAGAGCUCAACACAGCGUGGCAAAGAGGCUGUGGCUAGACUGCCUCUCUGGAUUCCUCGCCACUCAGCAGGGCAUCUCUGAGAGAAAUGCC [A42G U81A U115C] yielded a self-cleavage of 1.91.
UACGUAGGUGGUUUUCCCCUGAUAGUGCUAAGGGGGCCUGGGAGUUUGGACUGGGCAGAGCUCAACACAGCGUGGCAAAGCGGCUGUGGCUAGACUGCCUCUCUGGAUUCCUCGUCACUCAGCAGGGCAUCUCUGAGAGGAAUGCC [A42G U81C A140G] showed a self-cleavage of 2.09.
UACGUAGGUGGUUUUCCCCUGAUAGUGCUAAGGGGGCCUGGGAGUUUGGACUGGGCAGAGCUCAACACAGCGUGGCAAAGCGGCUGUGGCUAGACUGCCUCUCUGGAUUCCUCGUCACUCAGCAUGGCAUCUCUGAGAGAAAUGCC [A42G U81C G125U] showed a self-cleavage of 1.19.
UACGUAGGUGGUUUUCCCCUGAUAGUGCUAAGGGGGCCUGGGAGUUUGGACUGGGCAGAGCUCAACACAGCGUGGCAAAGUGGCCGUGGCUAGACAGCCUCUCUGGAUUCCUCGUCACUCAGCAGGGCAUCUCUGAGAGAAAUGCC [A42G U85C U96A] gave a self-cleavage of 0.25.
UACGUAGGUGGUUUUCCCCUGAUAGUGCUAAGGGGGCCUGGGAGUUUGGACUGGGCAGAGCUCAACACAGCGUGGCAAAGUGGCUGCGGCUAGACUGCCUCUCUGGAUUCCUCGUCACUCAGCAGGGCAUCUCUGAGAGAUAUGCC [A42G U87C A141U] showed a self-cleavage of 0.12.
In the case of UACGUAGGUGGUUUUCCCCUGAUAGUGCUAAGGGGGCCUGGGAGUUUGGACUGGGCAGAGCUCAACACAGCGUGGCAAAGUGGCUGCGGCUAGACUGCCUCUCUGGAUUCCUCGUCAAUCAGCAGGGCAUCUCUGAGAGAAAUGCC [A42G U87C C118A], the self-cleavage is reported as 0.32.
Work on UACGUAGGUGGUUUUCCCCUGAUAGUGCUAAGGGGGCCUGGGAGUUUGGACUGGGCAGAGCUCAACACAGCGUGGCAAAGUGGCUGCGGCUAGACUGCCUCUCUGGAUUCCUCGUCACUCAGCAGGGCAUCCCUGAGAGAAAUGCC [A42G U87C U132C] yielded a self-cleavage of 0.13.
In the case of UACGUAGGUGGUUUUCCCCUGAUAGUGCUAAGGGGGCCUGGGAGUUUGGACUGGGCAGAGCUCAACACAGCGUGGCAAAGUGGCUGUGGCAAGACUGCCUCUCUGGAUUCCCCGUCACUCAGCAGGGCAUCUCUGAGAGAAAUGCC [A42G U91A U112C], the self-cleavage is reported as 0.68.
UACGUAGGUGGUUUUCCCCUGAUAGUGCUAAGGGGGCCUGGGAGUUUGGACUGGGCAGAGCUCAACACAGCGUGGCAAAGUGGCUGUGGCUAGACAGCCUCUCUGGAUUCCCCGUCACUCAGCAGGGCAUCUCUGGGAGAAAUGCC [A42G U96A U112C A136G] showed a self-cleavage of 0.36.
In the case of UACGUAGGUGGUUUUCCCCUGAUAGUGCUAAGGGGGCCUGGGAGUUUGGACUGGGCAGAGCUCAACACAGCGUGGCAAAGUGGCUGUGGCUAGACCGCCUCUCUGGAUUCCUCGUCACUCAGCAGGGCAUCUCUGAGAGAGAUGCC [A42G U96C A141G], the self-cleavage is reported as 0.19.
UACGUAGGUGGUUUUCCCCUGAUAGUGCUAAGGGGGCCUGGGAGUUUGGACUGGGCAGAGCUCAACACAGCGUGGCAAAGUGGCUGUGGCUAGACUGCCCCUCUGGAUUCCUCGUCACUCGGCAGGGCAUCUCUGAGAGAAGAGCC [A42G U100C A121G A142G U143A] showed a self-cleavage of 0.
In the case of UACGUAGGUGGUUUUCCCCUGAUAGUGCUAAGGGGGCCUGGGAGUUUGGACUGGGCAGAGCUCAACACAGCGUGGCAAAGUGGCUGUGGCUAGACUGCCCCUCUGGAUUCCUCGUCACUCAGCAGGGCAUCUCUGGGAGAAAUGCC [A42G U100C A136G], the self-cleavage is reported as 1.93.
UACGUAGGUGGUUUUCCCCUGAUAGUGCUAAGGGGGCCUGGGAGUUUGGACUGGGCAGAGCUCAACACAGCGUGGCAAAGUGGCUGUGGCUAGACUGCCUCUCCGGAUUCCUCGUCGCUCAGCAGGGCAUCUCUGAGAGAAAUGCC [A42G U104C A117G] gave a self-cleavage of 2.76.
UACGUAGGUGGUUUUCCCCUGAUAGUGCUAAGGGGGCCUGGGAGUUUGGACUGGGCAGAGCUCAACACAGCGUGGCAAAGUGGCUGUGGCUAGACUGCCUCUCUGGAUCCCUCGUCACUCAGCGGGGCAUCUCUGAGAGAAAUGCC [A42G U109C A124G] gave a self-cleavage of 1.62.
UACGUAGGUGGUUUUCCCCUGAUAGUGCUAAGGGGGCCUGGGAGUUUGGACUGGGCAGAGCUCAACACAGCGUGGCAAAGUGGCUGUGGCUAGACUGCCUCUCUGGAUUCCCCGUCACUCAGCAGGGCAUCUCUGAGAGAAAGGCC [A42G U112C U143G] showed a self-cleavage of 1.11.
For UACGUAGGUGGUUUUCCCCUGAUAGUGCUAAGGGGGCCUGGGAGUUUGGACUGGGCAGAGCUCAACACAGCGUGGCAAAGUGGCUGUGGCUAGACUGCCUCUCUGGAUUCCUCGCCACUAAGCAGGGCAUCUCUGAGAGAAAUGCC [A42G U115C C120A], the self-cleavage was 1.45.
In the case of UACGUAGGUGGUUUUCCCCUGAUAGUGCUAAGGGGGCCUGGGAGUUUGGACUGGGCAGAGCUCAACACAGCGUGGCAAAGUGGCUGUGGCUAGACUGCCUCUCUGGAUUCCUCGUCACUCAGCAGGGCAUCUCCGGGAGAAAUGCC [A42G U134C A136G], the self-cleavage is reported as 2.05.
UACGUAGGUGGUUUUCCCCUGAUAGUGCUAAGGGGGCCUGGGAGUUUGGACUGGGCAGAGCUCAACACAGCGUGGCAAAGUGGCUGUGGCUAGACUGCCUCUCUGGAUUCCUCGUCACUCAGCAGGGCAUCUCCGAGUGAAAUGCC [A42G U134C A138U] gave a self-cleavage of 1.23.
For UACGUAGGUGGUUUUCCCCUGAUAGUGCUAAGGGGGCCUGGUGGUUUGGACUGGGCAGAGCUCAACACAGCGUGGCAAAGUGGCUGUGGCUAGACUGCCCCUCUGGAUUCCUCGUCACUCAGCAGGGCAUCUCUGAGAGGAAUGCC [A42U A43G U100C A140G], the self-cleavage was 0.59.
Work on UACGUAGGUGGUUUUCCCCUGAUAGUGCUAAGGGGGCCUGGUAGUUUGGGCUGGGCGGAGCUCAACACAGCGUGGCAAAGUGGCUGUGGCUAGACUGCCUCUCUGGAUUCCUCGUCACUCAUCAGGGCAUCUCUGAGAGAAAUGCC [A42U A50G A57G G122U] yielded a self-cleavage of 0.19.
Variant UACGUAGGUGGUUUUCCCCUGAUAGUGCUAAGGGGGCCUGGUAGUUUGGGCUGGGCAGAGCUCAAAACAGCGUGGCUAAGUGGCUGUGGCUAGACUGCCUCUCUGGAUUCCUCGUCACUCAGCAGGGCAUCUCUGAGAGAAAUGCC [A42U A50G C66A A77U] has a self-cleavage of 0.
In the case of UACGUAGGUGGUUUUCCCCUGAUAGUGCUAAGGGGGCCUGGUAGUUUGGACUGGGCGGAGCUCAACACAGCGUGGCAAAGUGGCUGUGGCUAGACUGCCUCUCUGGAUUCCUCGUCACUCAGCAGGGCAUCUCUGAGAGAAGUGCC [A42U A57G A142G], the self-cleavage is reported as 0.61.
In the case of UACGUAGGUGGUUUUCCCCUGAUAGUGCUAAGGGGGCCUGGUAGUUUGGACUGGGCAGGGCUCAACACAGCGUGGCAAAGUGGCUGUGGCUAGACUGCCUCUCUGGAUUCCUCGUCACUCAGCAGGGCAUCUCUGAGAGAGAUGCC [A42U A59G A141G], the self-cleavage is reported as 0.05.
In the case of UACGUAGGUGGUUUUCCCCUGAUAGUGCUAAGGGGGCCUGGUAGUUUGGACUGGGCAGUGCUCAUCACAGCUUGGCAAAGUGGCUGUGGCUAGACUGGCUCUCUGGAUUCCUCGUCACUCAGCAGGGCAUCUCUGAGAGAAAUGCC [A42U A59U A65U G72U C98G], the self-cleavage is reported as 0.02.
Variant UACGUAGGUGGUUUUCCCCUGAUAGUGCUAAGGGGGCCUGGUAGUUUGGACUGGGCAGAGCUCGACACAGCGUGGCAAAGUGGCUGUGGCUAGACUGCCUCUCUGGAUUCCUCGUCUCUCAGCAGGGCAUCUCUGAGAGAAAUGCC [A42U A64G A117U] has a self-cleavage of 0.11.
UACGUAGGUGGUUUUCCCCUGAUAGUGCUAAGGGGGCCUGGUAGUUUGGACUGGGCAGAGCUCAACACAGCGUGGCUAAGUGGCUGUGGCUAGACUGCCUCUCUGGAUUCCUCGCCACUCAGCAGGGCAUCUCUGAGAGAAACGCC [A42U A77U U115C U143C] gave a self-cleavage of 1.24.
For UACGUAGGUGGUUUUCCCCUGAUAGUGCUAAGGGGGCCUGGUAGUUUGGACUGGGCAGAGCUCAACACAGCGUGGCAAGGUGGCUGUGGCUAGACUGCCUAUCUGGAUUCCUCGUCACUCAGCAGGGCAUCUCUGAGAGAAAUGCC [A42U A79G C101A], the self-cleavage was 0.91.
